Results published in PMC3526545, “New perspectives for natural antimicrobial peptides: application as antinflammatory drugs in a murine model” (BMC Immunology, 2012).

Tested on: Staphylococcus epidermidis strains
Assay: Antibiotic susceptibility, disk diffusion method on Mueller-Hinton agar
Format: cell-based
Conditions: disk diffusion, Mueller-Hinton agar, NCCLS guidelines
[1] = strain SE, disk content as in antibiotic code

| Compound | antibiotic susceptibility test (strain 2/2) | antibiotic susceptibility test (strain 3/28) | antibiotic susceptibility test (strain 5/6) | antibiotic susceptibility test (strain 5/8) | antibiotic susceptibility test (strain 5/25) | antibiotic susceptibility test (strain 9/1) | antibiotic susceptibility test (strain 10/28) | antibiotic susceptibility test (strain 12/14) | antibiotic susceptibility test (strain 12/26) | antibiotic susceptibility test [1] |
| --- | --- | --- | --- | --- | --- | --- | --- | --- | --- | --- |
| C[C@@H]1O[C@@H]1P(=O)(O)O [FF50, fosfomycin] | R | R | R | S | I | S | S | R | S | S |
| CC1(C)S[C@@H]2[C@H](NC(=O)[C@H](N)c3ccccc3)C(=O)N2[C@H]1C(=O)O [AM10, ampicillin] | R | S | R | R | R | R | R | R | R | R |
| CN(C)[C@@H]1C(O)=C(C(N)=O)C(=O)[C@@]2(O)C(O)=C3C(=O)c4c(O)cccc4[C@@](C)(O)[C@H]3C[C@@H]12 [TE30, tetracycline] | I | I | I | S | S | S | I | R | S | R |
| CO[C@@H]1[C@@H](OC(N)=O)[C@@H](O)[C@H](Oc2ccc3c(O)c(NC(=O)c4ccc(O)c(CC=C(C)C)c4)c(=O)oc3c2C)OC1(C)C [NB30, novobiocin] | S | S | S | S | S | S | S | S | S | R |
| CCN[C@@H]1C[C@H](N)[C@@H](O[C@H]2OC(CN)=CC[C@H]2N)[C@H](O)[C@H]1O[C@H]1OC[C@](C)(O)[C@H](NC)[C@H]1O [NET30, netilmycin] | I | I | I | I | I | S | I | I | I | R |
| CN(C)[C@@H]1C(O)=C(C(N)=O)C(=O)[C@@]2(O)C(O)=C3C(=O)c4c(O)ccc(Cl)c4[C@@](C)(O)[C@H]3C[C@@H]12 [A30, chlorotetracycline] | S | I | I | R | S | S | R | R | S | I |
| CC1(C)S[C@@H]2[C@H](NC(=O)[C@H](NC(=O)N3CCN(S(C)(=O)=O)C3=O)c3ccccc3)C(=O)N2[C@H]1C(=O)O [MZ75, mezlocillin] | R | S | R | R | R | R | R | R | R | R |
